Data reported in PMC5501724, “Structural Basis for Specific Interaction of TGFβ Signaling Regulators SARA/Endofin with HD-PTP” (Structure(London, England:1993), 2017).
Results are given in words; binding and its absence hold for the method and conditions named. In cells and extracts the contact can be indirect. Some results given as binding are weak or reduced against the parent protein; the word gives no strength. Where a sequence is shown, tags or fusion partners need not be part of it.

By UniProt entry, the sequences of proteins in these tests, tags left out.
UniProt Q7Z3T8: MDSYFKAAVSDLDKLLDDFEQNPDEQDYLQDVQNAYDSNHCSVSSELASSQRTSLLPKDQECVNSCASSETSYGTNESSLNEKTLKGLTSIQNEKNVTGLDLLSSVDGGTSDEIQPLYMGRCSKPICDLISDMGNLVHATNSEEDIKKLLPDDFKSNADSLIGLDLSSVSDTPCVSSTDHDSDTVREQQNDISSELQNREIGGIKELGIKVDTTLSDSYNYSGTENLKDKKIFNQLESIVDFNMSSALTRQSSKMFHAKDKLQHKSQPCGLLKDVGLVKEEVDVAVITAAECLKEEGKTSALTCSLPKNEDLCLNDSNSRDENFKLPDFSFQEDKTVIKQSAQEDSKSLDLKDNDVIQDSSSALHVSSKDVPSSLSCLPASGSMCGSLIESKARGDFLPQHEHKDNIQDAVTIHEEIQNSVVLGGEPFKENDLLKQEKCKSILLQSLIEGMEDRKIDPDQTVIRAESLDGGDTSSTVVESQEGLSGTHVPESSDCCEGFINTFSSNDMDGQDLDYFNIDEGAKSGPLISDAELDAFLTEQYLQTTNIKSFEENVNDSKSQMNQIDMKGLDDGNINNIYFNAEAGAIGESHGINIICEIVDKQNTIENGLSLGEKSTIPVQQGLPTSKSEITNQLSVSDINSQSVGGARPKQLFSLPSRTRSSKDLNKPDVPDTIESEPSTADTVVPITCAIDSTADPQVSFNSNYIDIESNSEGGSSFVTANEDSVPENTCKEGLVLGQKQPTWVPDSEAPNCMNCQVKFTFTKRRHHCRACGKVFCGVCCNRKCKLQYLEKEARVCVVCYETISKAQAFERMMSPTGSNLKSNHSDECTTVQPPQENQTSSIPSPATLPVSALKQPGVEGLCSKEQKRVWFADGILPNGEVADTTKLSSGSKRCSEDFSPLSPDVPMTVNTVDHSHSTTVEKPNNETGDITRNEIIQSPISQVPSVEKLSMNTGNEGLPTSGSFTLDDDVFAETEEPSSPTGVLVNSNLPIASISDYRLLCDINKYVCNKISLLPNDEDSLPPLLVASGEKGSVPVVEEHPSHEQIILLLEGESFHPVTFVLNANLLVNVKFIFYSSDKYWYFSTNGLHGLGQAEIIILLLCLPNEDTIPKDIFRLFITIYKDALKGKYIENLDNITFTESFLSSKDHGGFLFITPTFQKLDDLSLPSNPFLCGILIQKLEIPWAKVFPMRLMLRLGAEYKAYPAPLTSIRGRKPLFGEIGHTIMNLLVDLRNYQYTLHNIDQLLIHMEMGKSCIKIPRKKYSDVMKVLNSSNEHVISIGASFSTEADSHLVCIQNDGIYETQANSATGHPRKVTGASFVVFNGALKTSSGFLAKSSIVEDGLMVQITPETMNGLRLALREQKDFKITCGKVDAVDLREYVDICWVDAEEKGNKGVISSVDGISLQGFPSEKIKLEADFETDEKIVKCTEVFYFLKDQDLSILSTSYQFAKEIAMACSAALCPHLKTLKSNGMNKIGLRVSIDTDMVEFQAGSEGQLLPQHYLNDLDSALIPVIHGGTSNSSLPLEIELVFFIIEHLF

Biological target: T1, HA-HD-PTP_(Bro1-CC) wild-type, expressed in cells (human) (UniProt Q9H3S7)
T1 sequence: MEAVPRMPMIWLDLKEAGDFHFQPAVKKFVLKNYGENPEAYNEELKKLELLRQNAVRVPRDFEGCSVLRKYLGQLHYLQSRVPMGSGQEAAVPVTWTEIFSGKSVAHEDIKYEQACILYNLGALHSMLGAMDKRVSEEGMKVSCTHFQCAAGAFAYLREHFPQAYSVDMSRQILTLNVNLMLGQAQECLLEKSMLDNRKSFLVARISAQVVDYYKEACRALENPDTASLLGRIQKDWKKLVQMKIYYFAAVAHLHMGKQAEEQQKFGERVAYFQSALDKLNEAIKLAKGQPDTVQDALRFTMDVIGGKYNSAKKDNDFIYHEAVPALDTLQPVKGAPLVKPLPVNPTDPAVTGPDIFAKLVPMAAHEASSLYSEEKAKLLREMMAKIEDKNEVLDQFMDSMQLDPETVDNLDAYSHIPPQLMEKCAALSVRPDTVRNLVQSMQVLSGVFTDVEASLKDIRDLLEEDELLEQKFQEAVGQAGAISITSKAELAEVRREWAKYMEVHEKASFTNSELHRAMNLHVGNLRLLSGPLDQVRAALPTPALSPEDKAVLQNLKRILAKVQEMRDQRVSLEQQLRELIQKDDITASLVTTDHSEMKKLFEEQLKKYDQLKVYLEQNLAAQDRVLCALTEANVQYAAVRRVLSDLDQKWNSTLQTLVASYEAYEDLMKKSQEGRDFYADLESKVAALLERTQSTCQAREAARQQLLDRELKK
Assay: co-IP; HA-tagged HD-PTP constructs expressed in cells; lysates in IP1 buffer (25 mM Tris-HCl pH 7.5, 40 mM NaCl, 0.5% IGEPAL); anti-HA immunoprecipitates blotted for endogenous endofin or SARA

**Q.** For “endogenous endofin (from UniProt Q7Z3T8 1-1539)”, which binding is on record?
**A.** binds
